# Results from paper PMC4336329 (PLoS ONE, 2015).
# Among all 310,000 compounds or so, about 2,200 (0.71%) showed an effect of 50% or more. The effect is printed as a negative number. The list shows a part of the results.
# Target: human ether-à-go-go-related gene (hERG) potassium channel (human, UniProt Q12809)
# Experiment: primary screen, population patch clamp on CHO cells stably expressing hERG
# human ether-à-go-go-related gene (hERG) potassium channel, sequence (Q12809 whole entry, looked up): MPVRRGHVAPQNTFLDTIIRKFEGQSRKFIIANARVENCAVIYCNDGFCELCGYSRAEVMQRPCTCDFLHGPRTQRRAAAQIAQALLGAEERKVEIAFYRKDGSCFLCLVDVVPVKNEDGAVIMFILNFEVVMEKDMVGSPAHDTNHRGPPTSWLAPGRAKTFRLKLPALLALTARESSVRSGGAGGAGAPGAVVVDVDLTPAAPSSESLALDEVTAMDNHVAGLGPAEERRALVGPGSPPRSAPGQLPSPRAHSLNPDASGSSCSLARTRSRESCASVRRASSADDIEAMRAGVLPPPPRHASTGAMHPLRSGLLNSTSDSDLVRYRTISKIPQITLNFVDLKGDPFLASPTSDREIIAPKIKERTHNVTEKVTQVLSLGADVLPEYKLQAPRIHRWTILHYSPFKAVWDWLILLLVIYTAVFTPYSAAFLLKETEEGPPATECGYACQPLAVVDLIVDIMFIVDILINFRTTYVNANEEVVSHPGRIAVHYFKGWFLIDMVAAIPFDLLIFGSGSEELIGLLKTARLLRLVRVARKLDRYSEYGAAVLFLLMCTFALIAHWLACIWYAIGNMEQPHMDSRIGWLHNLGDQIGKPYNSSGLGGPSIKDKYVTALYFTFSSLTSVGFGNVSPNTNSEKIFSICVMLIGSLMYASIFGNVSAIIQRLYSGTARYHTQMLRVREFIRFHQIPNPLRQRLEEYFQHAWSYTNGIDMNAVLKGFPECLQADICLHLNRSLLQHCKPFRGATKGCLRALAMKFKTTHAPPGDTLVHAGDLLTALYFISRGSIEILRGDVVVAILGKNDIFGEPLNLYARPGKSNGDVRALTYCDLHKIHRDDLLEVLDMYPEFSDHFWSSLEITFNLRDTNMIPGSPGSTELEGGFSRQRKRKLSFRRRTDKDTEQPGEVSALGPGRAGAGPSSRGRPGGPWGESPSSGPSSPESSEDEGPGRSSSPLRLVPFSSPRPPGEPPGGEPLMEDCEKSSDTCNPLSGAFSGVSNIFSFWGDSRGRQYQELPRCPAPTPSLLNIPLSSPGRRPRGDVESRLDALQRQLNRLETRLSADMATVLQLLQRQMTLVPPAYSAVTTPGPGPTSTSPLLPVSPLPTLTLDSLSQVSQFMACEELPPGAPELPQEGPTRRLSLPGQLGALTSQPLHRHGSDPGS
row,SMILES,"hERG current change (%, negative = inhibition) at 1uM"
1,COc1ccc(CCNc2oc(COc3ccccc3Cl)nc2C#N)cc1OC,1.91%
2,CCC1Oc2ccc(C)cc2N(CC(=O)NCc2cccc(OC)c2)C1=O (stereo not drawn),1.17%
3,COc1cc(C(=O)NCc2ccco2)cc(OC)c1OC,14.3%
4,CCCNC(=O)COc1ccccc1[N+](=O)[O-],0.55%
5,Cn1ccc(O)c(C#N)c1=O,9.27%
6,CCn1c(Cc2ccccc2)nnc1SCC(=O)c1cccc([N+](=O)[O-])c1,-0.387%
7,Cc1ccc2c(c1)N(CCCC(=O)NCc1ccc3c(c1)OCO3)C(=O)CO2,-0.437%
8,OC(COc1ccc2ccccc2c1Cl)CN1CCOCC1 (stereo not drawn),-7.02%
9,CCN1C(=O)[C@H]2[C@@H](c3ccc(C)cc3)N3C(=O)N(c4ccc(C)cc4)C(=O)[C@@]3(Cc3ccc(Cl)cc3)[C@H]2C1=O,3.87%
10,CCOc1ccccc1N1CCN(CC(=O)NC(C)c2ccccc2)CC1 (stereo not drawn),9.73%
11,Cc1[nH]c2ccccc2c1/C=N/NC(=O)c1cc(-c2cccs2)[nH]n1,8.31%
12,COc1ccc(NS(=O)(=O)c2cc(NC(=O)C3CCCCC3)ccc2N2CCOCC2)cc1,9.77%
13,CCC(NC(=S)Nc1ccccc1)C(=O)O (stereo not drawn),10.8%
14,COc1cccc(N2CCN(S(=O)(=O)c3ccc(-c4cnc(C5CC5)o4)cc3)CC2)c1,12.6%
15,COc1ccc(NC(=O)c2sccc2-n2cccc2)cc1,13.3%
16,CC1C=CCC2C(=O)N(c3ccccc3OC(=O)c3ccco3)C(=O)C12 (stereo not drawn),14%
17,COCCOc1cc(NC(=O)c2sccc2Oc2ccc([N+](=O)[O-])cc2F)c(Cl)cc1Cl,5.82%
18,COc1cccc2c(=O)n(CC(=O)Nc3ccccc3)ccc12,8.91%
19,CC(C)Cc1nnc(NC(=O)CSc2nc(-c3ccccc3)cc(=O)[nH]2)s1,26%
20,N/C(=N\OC(=O)COc1ccc2ccccc2c1)c1ccncc1,12.4%
21,CCc1nnc(NC(=O)CSCc2cc(=O)n3ccsc3n2)s1,11.2%
22,Cc1ccc(-n2c(-c3ccc([N+](=O)[O-])cc3)nc3ccccc3c2=O)cc1,3.15%
23,CCOC(=O)C1=C(Nc2ccccc2)CC(C)(O)C(C(=O)OCC)C1c1ccccc1 (stereo not drawn),14%
24,Cc1cc(Oc2nnnn2-c2ccccc2)ccc1Cl,0.766%
